According to publication PMC4336329 (PLoS ONE, 2015):
About 2,200 (0.71%) of roughly 310,000 compounds showed an effect of 50% or more. Effects have a minus sign here. Some of the results follow.

Each compound was assayed against human ether-à-go-go-related gene (hERG) potassium channel (human, UniProt Q12809) (assay: primary screen, population patch clamp on CHO cells stably expressing hERG).
Sequence of human ether-à-go-go-related gene (hERG) potassium channel (Q12809 whole entry, looked up): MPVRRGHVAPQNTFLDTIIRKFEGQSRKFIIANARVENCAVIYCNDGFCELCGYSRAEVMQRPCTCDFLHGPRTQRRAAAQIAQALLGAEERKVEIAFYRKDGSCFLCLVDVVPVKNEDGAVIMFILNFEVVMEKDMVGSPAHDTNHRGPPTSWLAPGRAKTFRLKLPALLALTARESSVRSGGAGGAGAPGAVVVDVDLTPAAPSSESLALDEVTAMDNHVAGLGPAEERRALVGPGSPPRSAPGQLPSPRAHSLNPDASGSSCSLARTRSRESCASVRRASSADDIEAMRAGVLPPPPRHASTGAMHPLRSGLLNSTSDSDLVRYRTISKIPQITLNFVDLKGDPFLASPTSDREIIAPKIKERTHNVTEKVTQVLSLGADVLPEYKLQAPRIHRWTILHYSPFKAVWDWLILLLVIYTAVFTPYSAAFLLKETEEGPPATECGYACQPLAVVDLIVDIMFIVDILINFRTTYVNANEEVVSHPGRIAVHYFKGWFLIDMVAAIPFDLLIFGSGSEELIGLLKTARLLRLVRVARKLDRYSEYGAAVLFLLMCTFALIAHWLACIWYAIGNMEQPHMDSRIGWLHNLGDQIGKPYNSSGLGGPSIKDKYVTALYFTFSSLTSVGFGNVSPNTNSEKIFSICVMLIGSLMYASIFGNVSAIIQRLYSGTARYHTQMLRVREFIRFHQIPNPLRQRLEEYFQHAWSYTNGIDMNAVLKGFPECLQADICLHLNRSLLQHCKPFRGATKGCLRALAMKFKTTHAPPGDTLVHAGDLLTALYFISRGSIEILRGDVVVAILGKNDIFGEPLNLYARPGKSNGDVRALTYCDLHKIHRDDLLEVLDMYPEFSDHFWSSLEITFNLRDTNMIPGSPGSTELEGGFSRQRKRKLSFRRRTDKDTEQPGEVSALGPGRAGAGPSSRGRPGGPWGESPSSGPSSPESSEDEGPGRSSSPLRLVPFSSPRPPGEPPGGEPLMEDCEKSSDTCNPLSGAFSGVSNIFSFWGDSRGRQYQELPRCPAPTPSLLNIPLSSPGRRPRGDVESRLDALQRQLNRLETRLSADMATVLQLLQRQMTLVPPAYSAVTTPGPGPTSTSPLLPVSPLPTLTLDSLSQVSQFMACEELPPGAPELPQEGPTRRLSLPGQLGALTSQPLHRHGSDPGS

Which “hERG current change (%, negative = inhibition) at 1uM” value does the source give for `Cc1ccccc1Nc1nc(N)nc(COC(=O)c2ccc(O)cc2)n1` here?
The value was 9.95%.

`Cc1ccccc1CS(=O)(=O)c1ccc(C(=O)N2CCC(C)CC2)cc1[N+](=O)[O-]` was tested. Which “hERG current change (%, negative = inhibition) at 1uM” value did it give?
The value was 0.513%.

`CC(C)CCOc1ccc(C2CC(=O)N(C)C2=O)cc1` (stereo not shown) was tested. Which “hERG current change (%, negative = inhibition) at 1uM” value did it give?
The value was 2.07%.

Which “hERG current change (%, negative = inhibition) at 1uM” value does the source give for `Cc1ccc(C)c(NC(=O)CN(C)C(=O)c2cc3ccccc3o2)c1` here?
Its value is 10.3%.

How did the “hERG current change (%, negative = inhibition) at 1uM” value turn out when `COc1ccccc1C(=O)NCC(=O)NCCc1ccc(Cl)cc1` was run?
Its value is 5.01%.

For `O=C(CCN1CCOCC1)NNC(=O)Nc1cccc(C(F)(F)F)c1`, which “hERG current change (%, negative = inhibition) at 1uM” value is on record?
The value was 13.7%.

How did the “hERG current change (%, negative = inhibition) at 1uM” value turn out when `CCCCOC(=O)Cn1c(=O)oc2ccc(C)cc21` was run?
The value was 14.6%.

With `N=c1oc2ccc([N+](=O)[O-])cc2cc1C(=O)NCc1ccccc1` as the compound, how does the “hERG current change (%, negative = inhibition) at 1uM” value read?
Its value is 10.6%.

How did the “hERG current change (%, negative = inhibition) at 1uM” value turn out when `[O-][n+]1ccccc1/C=C/c1ccccc1` was run?
Its value is 11.9%.

How did the “hERG current change (%, negative = inhibition) at 1uM” value turn out when `CC(C)n1cc(CN2CCC(C(=O)Nc3cccc(-c4cccc(Cl)c4)c3)CC2)cn1` was run?
The value was -30.5%.

Which “hERG current change (%, negative = inhibition) at 1uM” value does the source give for `COc1ccc(N2CCN(S(=O)(=O)c3c(C)[nH]c(C)c3C(=O)N3CCCCC3)CC2)cc1` here?
The value was 11.7%.

With `CN1CCN(CC(C)(C)NS(=O)(=O)c2ccc(Cl)cc2)CC1` as the compound, how does the “hERG current change (%, negative = inhibition) at 1uM” value read?
The value was -8.14%.

For `CCN(CC)C(=O)c1ccc(NC(=O)c2cn(-c3ccccc3)nc2-c2ccc(OC)cc2)cc1`, which “hERG current change (%, negative = inhibition) at 1uM” value is on record?
The value was 7.99%.

`N#Cc1c2n(c3c(=O)n(CC(=O)c4ccc(Br)cc4)cnc13)CCCC2` was tested. Which “hERG current change (%, negative = inhibition) at 1uM” value did it give?
The value was 1.58%.

How did the “hERG current change (%, negative = inhibition) at 1uM” value turn out when `Cc1ccc(S(=O)(=O)NCCCN2CCOCC2)cc1C` was run?
Its value is 12.3%.

`CCOc1ccccc1-c1nnc(SCC(=O)NC2CC2)n1CC` was tested. Which “hERG current change (%, negative = inhibition) at 1uM” value did it give?
Its value is 13%.

How did the “hERG current change (%, negative = inhibition) at 1uM” value turn out when `CC(=O)Nc1nnc(SCC(=O)NCC2CCCO2)s1` (stereo not shown) was run?
Its value is 13.6%.

For `CCOc1ccc(S(=O)(=O)N2CCCC(C(=O)N3CCOCC3)C2)cc1C` (stereo not shown), which “hERG current change (%, negative = inhibition) at 1uM” value is on record?
The value was 9.59%.

Which “hERG current change (%, negative = inhibition) at 1uM” value does the source give for `CC(C)CC(COCc1cccc(Cl)c1)N1CCN(C(=O)c2ccc(C(F)(F)F)cc2)CCC1=O` (stereo not shown) here?
Its value is 4.93%.

For `CCCCC(O)(c1ccc(OC)cc1)C(CN1CCOCC1)c1ccccc1.Cl` (stereo not shown), which “hERG current change (%, negative = inhibition) at 1uM” value is on record?
Its value is 5.77%.

With `CCC(C)C(NC(=O)C1CCC(C)CC1)C(=O)NCc1cccnc1` (stereo not shown) as the compound, how does the “hERG current change (%, negative = inhibition) at 1uM” value read?
The value was 11.9%.

How did the “hERG current change (%, negative = inhibition) at 1uM” value turn out when `O=C(N/N=C1\CCc2ccccc21)c1ccc(O)cc1` was run?
Its value is 10.7%.

Which “hERG current change (%, negative = inhibition) at 1uM” value does the source give for `Cc1c(Cl)cccc1NC(=S)NCC(c1cccnc1)N(C)C` (stereo not shown) here?
Its value is 1.57%.

With `O=C(c1cc(C2CC2)on1)N1CCN(c2ccccc2)CC1` as the compound, how does the “hERG current change (%, negative = inhibition) at 1uM” value read?
The value was 9.68%.

For `O=C(CCNS(=O)(=O)c1cccc(C(F)(F)F)c1)NC1CC1`, which “hERG current change (%, negative = inhibition) at 1uM” value is on record?
The value was 7.76%.

`OC1CCN(c2ncnc3nc[nH]c23)CC1` was tested. Which “hERG current change (%, negative = inhibition) at 1uM” value did it give?
Its value is -4.1%.

How did the “hERG current change (%, negative = inhibition) at 1uM” value turn out when `Cc1cc(C(=O)c2cccs2)c(N)s1` was run?
The value was 5.02%.

How did the “hERG current change (%, negative = inhibition) at 1uM” value turn out when `Cc1nc2ccccc2c(=O)n1NC(=O)c1cncc(Br)c1` was run?
The value was 22.4%.

For `S=C(NCC1COc2ccccc2O1)Nc1ccc(Br)cc1` (stereo not shown), which “hERG current change (%, negative = inhibition) at 1uM” value is on record?
Its value is 6.55%.

`O=C(COc1ccc2ccc(=O)oc2c1)OCc1ccccc1` was tested. Which “hERG current change (%, negative = inhibition) at 1uM” value did it give?
Its value is 11.1%.

For `CCCCn1c(SCC(=O)c2ccc3c(c2)OCCO3)nnc1-c1ccoc1C`, which “hERG current change (%, negative = inhibition) at 1uM” value is on record?
Its value is -1.11%.

For `Cc1ccccc1-c1nsc(SCC(=O)NCc2ccc3c(c2)OCO3)n1`, which “hERG current change (%, negative = inhibition) at 1uM” value is on record?
Its value is 3.11%.

Which “hERG current change (%, negative = inhibition) at 1uM” value does the source give for `COc1cccc(C(=O)NC2=NCCS2)c1` here?
The value was 12.6%.

How did the “hERG current change (%, negative = inhibition) at 1uM” value turn out when `CCOc1cc(/C=C/C(=O)NCCc2ccc(S(N)(=O)=O)cc2)ccc1OCC(C)C` was run?
Its value is 11.5%.

`COc1ccccc1Nc1nc2ccc(C)cc2n2cnnc12` was tested. Which “hERG current change (%, negative = inhibition) at 1uM” value did it give?
The value was 5.54%.

Which “hERG current change (%, negative = inhibition) at 1uM” value does the source give for `CCCCNc1c(C(=O)OCC)c(C)nc2c1cnn2CC` here?
The value was -3.96%.

`CC(C)C(C(=O)Nc1ccc(S(N)(=O)=O)cc1)N1C(=O)c2ccccc2C1=O` (stereo not shown) was tested. Which “hERG current change (%, negative = inhibition) at 1uM” value did it give?
Its value is 15.2%.

How did the “hERG current change (%, negative = inhibition) at 1uM” value turn out when `COC(=O)CSc1nnc([C@H](CC(C)C)NC(=O)OC(C)(C)C)o1` was run?
Its value is -12.4%.

`CCn1cc(CNC(=O)/C=C/c2cnn(C)c2)c(C)n1` was tested. Which “hERG current change (%, negative = inhibition) at 1uM” value did it give?
Its value is 10.6%.

With `COc1ccc(CNC(=O)[C@@H]2CC=C[C@@H]3CCN(Cc4ccc(Cl)c(Cl)c4)C(=O)[C@@H]32)cc1` as the compound, how does the “hERG current change (%, negative = inhibition) at 1uM” value read?
The value was 13.3%.

For `Brc1ccc2nc3c(n2c1)CCCC3`, which “hERG current change (%, negative = inhibition) at 1uM” value is on record?
Its value is -6.31%.

With `CCc1ccc2c(c1)c(N=NC1=NC(=O)CS1)c(O)n2C` as the compound, how does the “hERG current change (%, negative = inhibition) at 1uM” value read?
Its value is 6.8%.

`CCOC(=O)C1=C(O)/C(=C/N(C)C)N=C1C` was tested. Which “hERG current change (%, negative = inhibition) at 1uM” value did it give?
The value was 4.23%.

For `CCc1ccccc1N(C(=O)c1snc(C(N)=O)c1N)C(C(=O)NCC1CCCO1)c1ccc(C)o1` (stereo not shown), which “hERG current change (%, negative = inhibition) at 1uM” value is on record?
The value was -7%.

With `CCOC(=O)c1cc(C#N)c(N2CCNCC2)nc1C(F)(F)F` as the compound, how does the “hERG current change (%, negative = inhibition) at 1uM” value read?
Its value is 8.53%.

With `CCOC(=O)c1sc(-c2cccs2)nc1C` as the compound, how does the “hERG current change (%, negative = inhibition) at 1uM” value read?
Its value is 7.51%.
